Results published in publication PMC4336329 (PLoS ONE, 2015).
In all, about 310,000 compounds went through this assay and about 2,200 (0.71%) showed an effect of 50% or more. Effects have a minus sign here. This is one part of the list.

Target: human ether-à-go-go-related gene (hERG) potassium channel (human, UniProt Q12809)
Test: primary screen, population patch clamp on CHO cells stably expressing hERG

Chain of human ether-à-go-go-related gene (hERG) potassium channel (Q12809 whole entry, looked up): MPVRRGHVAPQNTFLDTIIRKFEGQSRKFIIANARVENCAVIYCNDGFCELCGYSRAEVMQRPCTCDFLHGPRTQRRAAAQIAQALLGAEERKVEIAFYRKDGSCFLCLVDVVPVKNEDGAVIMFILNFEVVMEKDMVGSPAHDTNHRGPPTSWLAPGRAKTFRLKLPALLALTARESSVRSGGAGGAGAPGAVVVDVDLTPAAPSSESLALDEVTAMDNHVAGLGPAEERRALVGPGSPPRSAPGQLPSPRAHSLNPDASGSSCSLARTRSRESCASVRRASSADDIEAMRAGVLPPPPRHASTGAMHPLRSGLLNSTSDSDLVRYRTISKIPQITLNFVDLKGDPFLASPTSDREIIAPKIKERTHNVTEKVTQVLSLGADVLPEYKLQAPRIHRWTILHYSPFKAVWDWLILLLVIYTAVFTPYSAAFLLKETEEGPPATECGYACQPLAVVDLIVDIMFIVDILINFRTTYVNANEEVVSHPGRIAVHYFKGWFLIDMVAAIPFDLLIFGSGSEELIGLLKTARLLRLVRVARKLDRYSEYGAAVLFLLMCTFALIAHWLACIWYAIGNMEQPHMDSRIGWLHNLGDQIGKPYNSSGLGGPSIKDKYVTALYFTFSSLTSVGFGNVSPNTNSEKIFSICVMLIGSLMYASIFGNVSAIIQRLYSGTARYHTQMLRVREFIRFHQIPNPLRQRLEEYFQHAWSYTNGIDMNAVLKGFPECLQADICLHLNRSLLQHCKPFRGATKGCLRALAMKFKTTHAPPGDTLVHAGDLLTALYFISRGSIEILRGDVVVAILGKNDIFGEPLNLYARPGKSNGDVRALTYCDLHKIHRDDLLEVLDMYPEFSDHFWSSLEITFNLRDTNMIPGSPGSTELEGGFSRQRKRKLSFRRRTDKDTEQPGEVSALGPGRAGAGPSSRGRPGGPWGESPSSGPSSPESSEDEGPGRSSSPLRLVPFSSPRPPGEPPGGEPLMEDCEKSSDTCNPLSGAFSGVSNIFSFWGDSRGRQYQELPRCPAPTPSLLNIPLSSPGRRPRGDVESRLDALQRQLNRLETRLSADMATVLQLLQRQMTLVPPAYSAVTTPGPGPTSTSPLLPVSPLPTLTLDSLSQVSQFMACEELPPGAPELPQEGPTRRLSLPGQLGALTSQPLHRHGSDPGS

| Compound | hERG current change (%, negative = inhibition) at 1uM |
| --- | --- |
| CCOC(=O)c1sc(NC(=O)OC)c(C(=O)OC)c1C | 17.2% |
| Cc1ccc2cc(C)c(SCC(=O)NCc3ccco3)nc2c1 | 6.98% |
| CC(C)n1c(=O)c(C=Nc2ccc(F)cc2)c(O)n(Cc2ccco2)c1=O | 8.4% |
| CC1Oc2ccccc2OC1C(=O)Nc1nccs1 (stereo not drawn) | 17% |
| COc1ccc(Cl)cc1NC(=O)C(C)Sc1nnc(C2CC2)n1C1CC1 (stereo not drawn) | -10.5% |
| Cc1nn(CC(=O)c2cccc(Cl)c2)c(C)c1[N+](=O)[O-] | 6.41% |
| CC(C(=O)Nc1ccc(Cl)cc1)c1ncc(C(F)(F)F)cc1Cl (stereo not drawn) | 3.36% |
| Cc1cc2cc(CNC(=O)CCC(=O)O)ccc2n1C | 13.2% |
| Cc1ccc(NC(=O)C2C3CCC(O3)C2C(=O)O)cc1Cl (stereo not drawn) | 15.2% |
| COC(=O)[C@H](CC(C)C)NC(=O)c1cc2c(cn1)[nH]c1ccccc12 | 8.82% |
| COC(=O)COc1cc(Br)c(/C=C2/SC(=O)N(CC(=O)N3CCCC3)C2=O)cc1OC | 6.42% |
| CCc1ccc(OCCNC(=O)c2cccs2)cc1 | -1.84% |
| O=c1cc(-c2ccccc2)nc2nc(COc3ccccc3)[nH]n12 | 0.79% |
| COC(=O)C1=C(c2cc3ccccc3s2)C[C@@H]2CC[C@H]1N2C(=O)NCCS(C)=O (stereo partly drawn) | 10.8% |
| O=C(CNC(=O)c1cccs1)NCC(=O)OCc1ccc(Cl)cc1 | -4.11% |
| C=C(C)COc1ccc(-c2n[nH]c(C)c2-c2ccc(OC)c(OC)c2)c(O)c1 | 16.4% |
| Cc1ccc(S(=O)CCNC(=O)Cc2ccccc2)cc1 (stereo not drawn) | 18.1% |
| CC1CCN(C(=O)CCc2nnc3ccc(N4CCC5(CC4)OCCO5)nn23)CC1 | 14.4% |
| NC(=O)C1CCN(C(=O)c2ccc(OCC(=O)Nc3cccc(C(F)(F)F)c3)cc2)CC1 | 4.73% |
| COc1ccc(-c2nnc(SCC(=O)c3cccs3)o2)cc1 | -5.02% |
| CC1(c2nnc(-c3ccccc3)o2)CC(c2c(Cl)cccc2Cl)=NO1 (stereo not drawn) | 18.7% |
| O=C(OCC(=O)c1c[nH]c2ccccc12)c1ccco1 | 12.3% |

| Compound | hERG current change (%, negative = inhibition) at 1uM |
| --- | --- |
| Cc1cccc(NC(=O)CCC(=O)N/N=C/c2cc([N+](=O)[O-])ccc2O)c1 | 10.4% |
| Cc1ccc(C(=O)N/C(=C\c2ccc(-c3cccc([N+](=O)[O-])c3)o2)C(=O)NCCCN2CCOCC2)cc1 | -74.7% |
| COc1ccc(-n2nc(C(=O)NCC(=O)NCC3COc4ccccc4O3)c3ccccc3c2=O)cc1 (stereo not drawn) | 9.18% |
| COc1ccc(N(C2CSC2)S(=O)(=O)c2ccccc2)cc1 | 11.6% |
| Cc1ccc(OCC(=O)NCCNC(=O)c2ccncc2)cc1C | 13.3% |
| CCCc1cc(=O)oc2cc(C)cc(OCC(=O)N3CCC(C(N)=O)CC3)c12 | -1.68% |
| COCCN(CCOC)c1cc(C)c(C#N)c2nc3ccccc3n12 | -1.57% |
| CC(C)CCN1C(=O)c2ccc(C(=O)Nc3c[nH]c(=O)[nH]c3=O)cc2C1=O | 15.6% |
| Cn1c(SCc2ccc(Br)cc2)nnc1-c1ccncc1 | -3.81% |
| C/C(=N\Nc1ccc(C(=O)O)cc1)c1ccc(S(=O)(=O)NCc2ccco2)cc1 | 7.08% |
| CN(C)CCOC(=O)C12CC3(C)CC(C)(CC(C)(C3)C1)C2.Cl | 4.49% |
| Cc1ccc2c(c1)cc(C(=O)N[C@@H](Cc1ccccc1)C(=O)O)n2C | 10.4% |
| Clc1ccc(-n2cc(COCc3ccccc3)nn2)cc1 | -9.69% |
| Clc1ccc(C(c2ccccc2Cl)C(Cl)Cl)cc1 (stereo not drawn) | 10.5% |
| Cn1c(=O)c(Cc2ccccc2)c(O)c2ccccc21 | 6.05% |
| CC(C)OC(=O)/C(=C\c1cccnc1)NC(=O)c1ccccc1 | 8.3% |
| Cc1ccc(C(=O)NCc2cccnc2)cc1S(=O)(=O)Nc1ccccc1 | 10.4% |
| Cc1ccc(C)c(-c2ccc(=O)n(Cc3c(F)cccc3Cl)n2)c1 | 29.7% |
| Cc1cccc(N(C(=O)c2csnn2)C(C(=O)NCc2ccccc2)c2ccncc2)c1 (stereo not drawn) | -3.14% |
| CC(=O)Nc1cc(C(=O)NCCN2CCN(Cc3ccccc3)CC2)ccc1Sc1ccc(C)cc1 | -22.5% |
| COc1ccc(CCN2C(=O)CC(N3CCC(C(N)=O)CC3)C2=O)cc1OC (stereo not drawn) | 12.9% |
| O=C1C2C(c3ccccc3)CC=CC2[C@H](c2ccc3ccccc3c2)N1Cc1ccccc1 (stereo partly drawn) | 18.2% |

| Compound | hERG current change (%, negative = inhibition) at 1uM |
| --- | --- |
| COC(=O)C(NC(=O)CCC(=O)NC(C(=O)OC)c1ccccc1)c1ccccc1 (stereo not drawn) | 8.72% |
| Cc1cc(=O)oc(C)c1C(=O)NCc1c(F)cc(F)cc1F | -8.53% |
| O=C(N/N=C/c1cc(Br)cc(Br)c1O)c1ccncc1 | 5.33% |
| Cc1ccc(S(=O)(=O)N2CCN(C(=O)COC(=O)Cc3ccccc3)CC2)c(C)c1 | 10% |
| Cc1ccc2c(c1)C1CN(C)CCC1N2C(=O)c1ccc(Br)o1 (stereo not drawn) | 2.7% |
| CCOc1ccccc1N1CCN(C(=O)Nc2cccc(Cl)c2)CC1 | 9.41% |
| Cc1n[nH]c(=S)n1/N=C/c1ccccc1OCc1ccc(Cl)cc1 | 6.28% |
| C/C=C(\C)CN1CCC(n2nccc2NC(=O)c2ccc(OC)cc2)CC1 | 8.77% |
| Cc1ccc(C)c(NC(=S)NC(NC(=O)OCc2ccccc2)C(Cl)(Cl)Cl)c1 (stereo not drawn) | 8.68% |
| CCOc1ccc(CN(C)C(=O)CNC(=O)c2cc(OC)c(OC)c(OC)c2)cc1 | 14.1% |
| COc1ccccc1C1=Nc2cccc3cccc(c23)N1 | 11.1% |
| CC(NC(=O)c1ccccc1)C(=O)NNC(=O)c1ccccc1Cl (stereo not drawn) | 7.02% |
| CCOC(=O)N1CCN(C(=O)c2ccc(S(=O)(=O)c3ccc(C)cc3)c(NC(C)=O)c2)CC1 | 3.85% |
| O=C(c1cccs1)N1CCC(c2nc3c(nnn3Cc3cccc(Cl)c3)c(=O)[nH]2)CC1 | 6% |
| CC(C)(C)OC(=O)NCCCC1=CC2=CC(=O)C(C)(OC(=O)C3CCCC3)C(=O)C2=CO1 (stereo not drawn) | 3.89% |
| Cc1ccc(NC(=O)c2ccc(Cl)c(N3C(=O)CCC3=O)c2)cc1 | 15% |
| CCOC(=O)COc1cc2oc(=O)cc(C)c2cc1[N+](=O)[O-] | -3.43% |
| Cc1c(C)c(C)c(S(=O)(=O)N2CCC3(CC2)OCCO3)c(C)c1C | -1.4% |
| Cc1ccccc1NC(=O)CCc1nnc2ccc(N3CCC4(CC3)OCCO4)nn12 | 15.3% |
| CC(c1nnc(SCC(=O)N(C)C2CCS(=O)(=O)C2)n1-c1ccccc1)N(C)C (stereo not drawn) | 3.36% |
| Cc1oc2c(c1C(=O)Nc1ccc(C(=O)O)cc1)CCCC2 | 8.34% |
| O=C(Cc1csc(-c2ccccc2)n1)NCc1ccccc1F | 7.58% |

| Compound | hERG current change (%, negative = inhibition) at 1uM |
| --- | --- |
| O=C(/C=C/c1ccc[nH]1)c1ccc(F)cc1 | 16.7% |
| COc1cccc(CNS(=O)(=O)c2c(C)nc3scc(C)n3c2=O)c1 | 16.6% |
| Fc1ccccc1C1c2[nH]c3ccccc3c2CCN1Cc1ccoc1 (stereo not drawn) | -15.8% |
| CCOC(=O)c1ccc(CS(=O)c2ccc(Cl)cc2)o1 (stereo not drawn) | 1.53% |
| Cc1ccc(Cl)cc1NC(=O)COC(=O)c1ccccc1O | 8.66% |
| CC(=O)N(C)c1ccc(OCC(O)Cn2c3ccc(Cl)cc3c3cc(Cl)ccc32)cc1 (stereo not drawn) | -1.16% |
| COc1ccc(C(=O)Nc2cccnc2Sc2ccc(Cl)cc2)cc1 | 5.4% |
| O=C(Nc1ccc(O)c(C(=O)O)c1)c1cccc(NC(=O)c2ccco2)c1 | 6.69% |
| CSc1nc(C)c(Cc2c(F)cccc2Cl)c(=O)[nH]1 | 15.2% |
| COC(=O)c1ccc(=O)c2nc3/c(=C/O)c(O)cc(=O)c3[nH]c12 | -3% |
| CCc1nn(CC(=O)N2CCCCCC2)c(=O)c2cc3ccccc3n12 | 6.68% |
| CN(C)S(=O)(=O)c1ccc(NC(=O)c2cccnc2)cc1 | 7.75% |
| CC(C1CC1)N(Cc1ccccc1)C(=O)NC(=O)c1ccc(F)cc1 (stereo not drawn) | 9.3% |
| Cc1nonc1OCCNc1ccc([N+](=O)[O-])cc1[N+](=O)[O-] | -6.21% |
| CC1CCCCN1Cc1c(O)ccc2c(=O)c(-c3ccccc3)coc12 (stereo not drawn) | -6.67% |
| O=C(CSc1nnc(COc2ccccc2Cl)o1)Nc1ccccc1 | 7.62% |
| CCCCc1ccc(NS(=O)(=O)c2cccs2)cc1 | 4.98% |
| COc1ccc(C2(C)NC(=O)N(CC(=O)Nc3cccnc3Cl)C2=O)cc1 (stereo not drawn) | 8.98% |
| CCOC(=O)c1sc(NC(=O)c2cccc(S(=O)(=O)N(CC)CC)c2)cc1C | 3.61% |
| COc1ccccc1N(CC(=O)NC1CCCC1)S(=O)(=O)c1ccc(C)cc1 | 14.1% |
| Cc1nn(CCC(=O)NNC(=S)Nc2ccc(F)cc2)c(C)c1Br | 9.11% |
